Experimental data: a compilation of properties of binary mixtures (doi:10.1016/j.jct.2017.05.012)
Some of these densities may be calculated back from excess volumes.

Assay: xn = mol fraction of the nth substance listed
Details: 101 kPa

CCCCCCCCOS(=O)(=O)[O-].CC[n+]1ccn(C)c1 + O
Details | mass density [kg/m3]
292.15 K, x2 = 0.8237 | 1079.1
292.65 K, x2 = 0.8237 | 1078.7
292.95 K, x2 = 0.8237 | 1078.5
293.15 K, x2 = 0.8237 | 1078.3
293.25 K, x2 = 0.8237 | 1078.2
293.45 K, x2 = 0.8237 | 1078
293.65 K, x2 = 0.7822 | 1082.1
293.65 K, x2 = 0.8237 | 1077.8
293.85 K, x2 = 0.8237 | 1077.6
294.15 K, x2 = 0.7822 | 1081.7
294.15 K, x2 = 0.8104 | 1079.6
294.15 K, x2 = 0.8237 | 1077.4
294.15 K, x2 = 0.8384 | 1075.5
294.65 K, x2 = 0.7822 | 1081.2
294.65 K, x2 = 0.8104 | 1079.2
295.15 K, x2 = 0.8104 | 1078.7
295.15 K, x2 = 0.8237 | 1076.7
295.15 K, x2 = 0.8384 | 1074.9
295.65 K, x2 = 0.7822 | 1080.7
296.15 K, x2 = 0.7822 | 1080.5
296.15 K, x2 = 0.8104 | 1078
296.15 K, x2 = 0.8237 | 1076.2
296.15 K, x2 = 0.8384 | 1074.5
297.15 K, x2 = 0.7822 | 1079.7
297.15 K, x2 = 0.8104 | 1077.5
297.15 K, x2 = 0.8384 | 1073.8
298.15 K, x2 = 0.7822 | 1079.1
298.15 K, x2 = 0.8104 | 1076.8
299.15 K, x2 = 0.8237 | 1074.2
300.15 K, x2 = 0.8237 | 1073.5
303.15 K, x2 = 0.7822 | 1075.7
303.15 K, x2 = 0.8104 | 1073.4
308.15 K, x2 = 0.7822 | 1072.2
308.15 K, x2 = 0.8104 | 1069.9
308.15 K, x2 = 0.8237 | 1068.1
313.15 K, x2 = 0.7822 | 1068.7
313.15 K, x2 = 0.8384 | 1062.9
318.15 K, x2 = 0.8237 | 1061.1
323.15 K, x2 = 0.7822 | 1061.9
323.15 K, x2 = 0.8104 | 1059.5
323.15 K, x2 = 0.8384 | 1055.9
328.15 K, x2 = 0.8237 | 1054
333.15 K, x2 = 0.8104 | 1052.4
333.15 K, x2 = 0.8384 | 1048.8
338.15 K, x2 = 0.8237 | 1046.8
343.15 K, x2 = 0.8104 | 1045.3
343.15 K, x2 = 0.8384 | 1041.6
